By % Inhibition is commonly meant the drop in the measured response relative to a control, in per cent.

In all, about 150,000 compounds went through this assay and about 540 (0.36%) showed an effect of 50% or more. The list shows a part of the results.

This note sets out measurements from ChEMBL document CHEMBL4888484, “Replenishing the malaria drug discovery pipeline: Screening and hit evaluation of the MMV Hit Generation Library 1 (HGL1) against asexual blood stage Plasmodium falciparum ,using a nano luciferase reporter read-out” (2022).

This assay has as its system Plasmodium falciparum. Description: Primary screen in NF54 nanoGlo assay, in single point, at 2uM, 72h; a lower Z score goes with more inhibition. It counts as functional, Erythrocyte. Particulars: timepoint 72 hour.
Consider `CCc1nocc1CN1[C@H](C(=O)NC2CC2)C[C@@H]2OCC[C@@H]21`, for which the “% Inhibition” value turned out to be 6% and the Z score is reported as -0.9.

For the compound `O=C(c1cccc(N2CCCN(Cc3ccccc3)C2=O)c1)N1CCC2(CC1)OCCO2`, the “% Inhibition” value was -10% and the Z score was 1.48.

As for `O=C(CCc1ccccc1)N1C2CCC1c1cncnc1C2` (stereo not drawn), the “% Inhibition” value was -8% and the Z score came to 1.07.

With `CC[C@H](C)Oc1cccc2c1cc(C(=O)N1CCCC1)n2Cc1ccccc1`, the “% Inhibition” value is listed as -22% and the Z score stood at 2.52.

In the case of `CS(=O)(=O)NCCCNc1ccc(C#N)c(Cl)c1`, the “% Inhibition” value is -6% and the Z score stood at 0.9.

Turning to `COc1ccc(CCNCc2cnc(N)nc2)cc1OC`, the “% Inhibition” value is -4% and the Z score was 0.62.

Regarding `Cn1nc(C(=O)N2C[C@@H](c3ccccc3)[C@@H]3[C@H]2C2CCN3CC2)ccc1=O`, the “% Inhibition” value is -12% and the Z score came to 1.35.

In the case of `CCc1ccc(CN2C[C@@H]3CC[C@H]2CN(C)C3)nc1`, the “% Inhibition” value was determined as 1% and the Z score is reported as -0.19.

Regarding `c1ccc(CCN2C[C@@H]3CC[C@H]2CN(Cc2cccnc2)C3)cc1`, the “% Inhibition” value is listed as 16% and the Z score is -2.06.

`C[C@H]1Cc2cc(NC(=O)CN3CCCC3=O)ccc2O1`: the “% Inhibition” value was -1% and the Z score is 0.16.

Take `O=C1NCCCCCCN[C@H]2CCC[C@@H]12`: the “% Inhibition” value is given as 11% and the Z score was -1.38.

`Cc1ccc(C2CC(c3cccnc3)Nc3ncnn32)cc1` (stereo not drawn): the “% Inhibition” value amounted to 42% and the Z score was -5.68.

In the case of `COc1ccccc1Cn1cc(C(=O)NCCC(C)C)c(=O)c(C(=O)N(C)CCCN(C)C)c1`, the “% Inhibition” value is listed as 3% and the Z score is on record as -0.37.

Consider `Cc1cnn(CC(C)NC2CC(C)OC2=O)c1` (stereo not drawn), for which the “% Inhibition” value is listed as -4% and the Z score is reported as 0.56.

Consider `Cc1cccnc1C[C@H](C)N(C)CCC(=O)Nc1cccc(C)c1C`, for which the “% Inhibition” value is on record as -1% and the Z score came out at 0.08.

Regarding `COCC(O)CN1CC2CN3CCCCC3C2C1` (stereo not drawn), the “% Inhibition” value was -13% and the Z score was found to be 1.18.

`O=C(Nc1cccc(N2CCCC2=O)c1)Oc1ccccc1`: the “% Inhibition” value was -13% and the Z score is recorded as 1.66.

As for `O=C(N[C@H]1COC[C@@H]1N1CCOCC1)c1cccn1C1CC1`, the “% Inhibition” value is -10% and the Z score was determined as 0.93.

As to `Cc1cc(CC(C)NC(C)c2ccnn2C)n[nH]1` (stereo not drawn), the “% Inhibition” value came to 2% and the Z score is on record as -0.28.

Regarding `C[C@@H](Cc1ccccn1)N(C)CC(=O)N1CCOCC1`, the “% Inhibition” value is -2% and the Z score is 0.48.

On to `c1ccc2c(c1)CCCC[C@@]21CCCNC1`, for which the “% Inhibition” value was -1% and the Z score was 0.09.

`COc1ccc(-c2oc(=O)n(Cc3ccco3)c2-c2ccc(OC)cc2)cc1`: the “% Inhibition” value is given as -3% and the Z score is reported as 0.37.

In the case of `C/C=C(\C)CN1CC[C@@]2(CCCN(Cc3cccnc3)C2=O)C1`, the “% Inhibition” value is given as -11% and the Z score is 1.58.

Take `CCc1nnc(-c2ccc(OC)c(NC(=O)N[C@H]3CN4CCC3CC4)c2)o1`: the “% Inhibition” value amounted to 12% and the Z score is -1.12.
